Some of the results follow. At the low end of the ranking the order means little.

The record followed here is publication PMC10668032.

The test has as its target SIX1-Q177R homeodomain (UniProt Q15475). Kind of test: universal protein binding microarray. Particulars: Universal all-10-mer PBM (8x60K, AMADID 030236), 300 nM GST-tagged protein, Alexa Fluor 488 anti-GST; buffer, salt, pH and temperature not stated; high values mean tight binding; most listed sequences are background and not binding sites; double strand, one strand shown.
Regarding CTCTCGGC, the binding signal was -0.0693 E-score.

On to CTAGAACA, for which the binding signal was found to be 0.101 E-score.

Turning to CAATGTTC, the binding signal was -0.261 E-score.

GACTACAC: the binding signal came out at 0.428 E-score.

As to GCCTCTCC, the binding signal is -0.0627 E-score.

On to ACCCTTGC, for which the binding signal is 0.141 E-score.

As for ATCATGTC, the binding signal is 0.147 E-score.

For AGTGGCTG, the binding signal is -0.251 E-score.

For the sequence GCAGTCAA, the binding signal is -0.348 E-score.

For TATTATCA, the binding signal was -0.12 E-score.

Turning to AGATGCGG, the binding signal is -0.0318 E-score.

For the sequence AGCGAGGA, the binding signal is -0.0976 E-score.

Take GTTTCGGA: the binding signal was -0.0967 E-score.

As to CATCACTA, the binding signal is -0.0786 E-score.

AACATGCG: the binding signal is -0.26 E-score.

Take AGCTACTG: the binding signal was -0.106 E-score.

As for CATACGTA, the binding signal was -0.217 E-score.

Take GTAAAACA: the binding signal was determined as 0.0695 E-score.

For the sequence CCCACGAA, the binding signal is -0.11 E-score.

Regarding AGCGCCCT, the binding signal is -0.0779 E-score.

ATAGTCTG: the binding signal is -0.0411 E-score.

As for CGCCCTGA, the binding signal amounted to 0.00581 E-score.

Take ATCGTGCG: the binding signal turned out to be 0.0462 E-score.

For CATCCGTA, the binding signal was -0.129 E-score.

For the sequence CCAAGACA, the binding signal amounted to 0.223 E-score.

Take CAAACGCC: the binding signal was -0.155 E-score.

As to CCCTGACA, the binding signal was determined as 0.181 E-score.

As to AAGTTGGC, the binding signal is -0.321 E-score.

For the sequence GCCGGGGA, the binding signal is -0.0563 E-score.

As to AGTCAAGA, the binding signal was -0.127 E-score.

As to CGCGTCAG, the binding signal is 0.154 E-score.

Take TAAATGAA: the binding signal was -0.0323 E-score.

Consider CTCGGCAA, for which the binding signal is -0.0573 E-score.

Regarding TAGAGACA, the binding signal is -0.0991 E-score.

As to CCCTGTAG, the binding signal is 0.06 E-score.

ACCAGAAG: the binding signal is -0.0313 E-score.

Consider CCCGACCA, for which the binding signal turned out to be 0.204 E-score.

As for CACATTGA, the binding signal is -0.0956 E-score.

For the sequence CGAGGAGA, the binding signal is -0.2 E-score.

Regarding CATTCGCC, the binding signal is -0.135 E-score.

With TAGCTGCA, the binding signal was -0.117 E-score.

For ATCGGAGA, the binding signal was -0.031 E-score.

As to ATGACCTG, the binding signal was -0.0659 E-score.

With CAGTCATC, the binding signal is -0.102 E-score.

In the case of CGGCGAAG, the binding signal was -0.175 E-score.

Regarding TAAACACA, the binding signal worked out at 0.214 E-score.

As for CCATCAAA, the binding signal is -0.157 E-score.

In the case of GCGTCTAC, the binding signal was -0.16 E-score.

For CAAGTCTG, the binding signal was -0.00441 E-score.

For the sequence CGTTCCCC, the binding signal worked out at 0.0159 E-score.

Turning to AGATCCCC, the binding signal stood at 0.243 E-score.

For the sequence AGAGATTA, the binding signal was -0.126 E-score.

On to CAGGGATG, for which the binding signal was determined as 0.131 E-score.

For CTGCTCGA, the binding signal was -0.0578 E-score.

Take CACAATCA: the binding signal is -0.12 E-score.

As to ACGGCAGG, the binding signal amounted to 0.134 E-score.

For the sequence GCATGAGC, the binding signal was -0.168 E-score.

Consider ATCATCCA, for which the binding signal came to 0.00939 E-score.

For ATAATTGA, the binding signal was -0.112 E-score.

As to ATAATAAA, the binding signal amounted to 0.00984 E-score.

Consider CATATCAC, for which the binding signal came out at 0.0401 E-score.

AATTACCA: the binding signal was -0.0222 E-score.

Consider GGCCAGCA, for which the binding signal is -0.113 E-score.

In the case of CTGTACCA, the binding signal was -0.234 E-score.

Consider CCGACTTC, for which the binding signal is -0.247 E-score.

GATGTCCA: the binding signal was -0.212 E-score.

Turning to CCGGTTCG, the binding signal is 0.0997 E-score.

Regarding TCAGAGAA, the binding signal is -0.168 E-score.

On to AGAAGGCT, for which the binding signal was -0.327 E-score.

For the sequence AAAAAATT, the binding signal is -0.335 E-score.

As to GGCACTGA, the binding signal was determined as 0.0286 E-score.

Turning to TATATTAA, the binding signal is -0.0728 E-score.

Regarding CTAAAGGC, the binding signal is -0.229 E-score.

GGGTTCAA: the binding signal was 0.0798 E-score.

For the sequence AGGCCACT, the binding signal is -0.115 E-score.

Take ATTACACC: the binding signal stood at 0.479 E-score.

In the case of CGGATGTC, the binding signal was -0.0341 E-score.

As for GGAACTCA, the binding signal is -0.167 E-score.

For the sequence CAACAACC, the binding signal turned out to be 0.123 E-score.

As to AACCCGTA, the binding signal amounted to 0.0388 E-score.

With CGACGCAA, the binding signal worked out at 0.0251 E-score.

In the case of GTGGTGAA, the binding signal was -0.106 E-score.

With ACTTCAGA, the binding signal is -0.00662 E-score.

On to AGAAATCT, for which the binding signal was -0.163 E-score.

ACGATCCC: the binding signal was 0.14 E-score.

Turning to CCAATCAA, the binding signal was determined as 0.0209 E-score.

On to ACTTACAC, for which the binding signal came out at 0.449 E-score.

Turning to ACGCAGCG, the binding signal came to 0.0248 E-score.

On to CCTTTAAG, for which the binding signal was -0.0325 E-score.

On to ACACGGGA, for which the binding signal was 0.411 E-score.

On to ACTATCCA, for which the binding signal came out at 0.0296 E-score.

With GTGCTATA, the binding signal came out at 0.115 E-score.

For AACGGACG, the binding signal is -0.165 E-score.

GGGAGCCA: the binding signal was -0.112 E-score.

For the sequence AGAACGGG, the binding signal was -0.00587 E-score.

For GTCAGACA, the binding signal turned out to be 0.114 E-score.

Take ATAGTGAA: the binding signal was -0.176 E-score.

Turning to CCGATTTA, the binding signal was -0.0162 E-score.

As for CTAAAACA, the binding signal was determined as 0.211 E-score.

GCTAAAGC: the binding signal is -0.065 E-score.

With ATAGGAAC, the binding signal was -0.0361 E-score.

Consider ATCACGAT, for which the binding signal is -0.0474 E-score.

Consider CAAAATGC, for which the binding signal was -0.0152 E-score.

CCCACATA: the binding signal amounted to 0.134 E-score.

Take ACGCCGCA: the binding signal is -0.00867 E-score.

CGTAATGC: the binding signal was -0.0208 E-score.

In the case of CCAGTGGC, the binding signal is -0.0089 E-score.

Regarding AAACGCCT, the binding signal is -0.219 E-score.

As to AACTTACG, the binding signal came out at 0.0647 E-score.

For ACTATTCG, the binding signal was -0.177 E-score.

As to AGGATCGC, the binding signal turned out to be 0.0802 E-score.

Take CGCCACGA: the binding signal was 0.0294 E-score.

For the sequence CGAGCTTA, the binding signal was -0.164 E-score.

As to TCAAGTAA, the binding signal came out at 0.0548 E-score.

AATGTCGT: the binding signal was -0.0692 E-score.

CAGCCAGG: the binding signal was determined as 0.0687 E-score.

On to TATCAACA, for which the binding signal was 0.288 E-score.

On to ATCCGTAC, for which the binding signal turned out to be 0.0773 E-score.

Consider CGGTTAGC, for which the binding signal is 0.00396 E-score.

For the sequence CAGATTGA, the binding signal amounted to 0.00399 E-score.

Turning to AACCTGAT, the binding signal is -0.213 E-score.

As to CTTAATCA, the binding signal was -0.0318 E-score.

In the case of ACTTCTCT, the binding signal was -0.0832 E-score.

For CATCCAAC, the binding signal is -0.0665 E-score.

Turning to CTACAAGA, the binding signal is -0.163 E-score.

On to CGGTAAAA, for which the binding signal is -0.0455 E-score.

On to CCACTAAC, for which the binding signal was 0.115 E-score.

For the sequence CGCCCCTC, the binding signal is 0.142 E-score.

Take CACTAGTC: the binding signal amounted to 0.208 E-score.

With CGTGCATA, the binding signal is 0.0215 E-score.

Take ACAGGTGC: the binding signal worked out at 0.148 E-score.

For CCACTTTA, the binding signal is -0.0459 E-score.

As for AAGTGACT, the binding signal was -0.0504 E-score.

For ATGGCAAA, the binding signal is -0.375 E-score.

Consider CGCTTATC, for which the binding signal stood at 0.053 E-score.

Take GTGCCGTA: the binding signal is 0.00856 E-score.

Turning to ATCGAGTC, the binding signal was 0.00664 E-score.

For the sequence ACCGGAAC, the binding signal was -0.0312 E-score.

For the sequence AGGCTATC, the binding signal was -0.162 E-score.

On to GAGAAGAC, for which the binding signal was -0.114 E-score.

For AGCCTAGG, the binding signal is -0.175 E-score.

For the sequence GGAGATCA, the binding signal is -0.0528 E-score.

On to TGAACTAA, for which the binding signal is -0.125 E-score.

ACACGGGG: the binding signal worked out at 0.452 E-score.

As to GGATACGA, the binding signal was 0.0396 E-score.

As to CTGTTGGC, the binding signal is -0.0882 E-score.

Take CCTGATGA: the binding signal was -0.0166 E-score.

For ACAGCATC, the binding signal was -0.233 E-score.

Turning to AACCGCAG, the binding signal is -0.0792 E-score.

Consider TAGAGGAA, for which the binding signal is -0.0773 E-score.

As to CATGTTGA, the binding signal is -0.0908 E-score.

In the case of AAGGGCTG, the binding signal is -0.251 E-score.

For ATCCGGAC, the binding signal is -0.0656 E-score.

For CCTGCGGA, the binding signal amounted to 0.108 E-score.

Regarding ACGGCTGC, the binding signal is -0.0602 E-score.

Take ATATAGGA: the binding signal was determined as 0.0594 E-score.

For the sequence AGCAGTTC, the binding signal is -0.0476 E-score.

As for AAACGTAG, the binding signal worked out at 0.112 E-score.

For CACGTTGA, the binding signal came out at 0.129 E-score.

Consider GCGCCAGC, for which the binding signal is -0.13 E-score.

Take AGGGGGGA: the binding signal was 0.1 E-score.

Consider TAGTCAAA, for which the binding signal is -0.208 E-score.

Turning to CGGACGTC, the binding signal is -0.196 E-score.

In the case of GCAAACTA, the binding signal is -0.0156 E-score.

With CGGGAGAC, the binding signal is -0.0591 E-score.

GACCCGTC: the binding signal came out at 0.0402 E-score.

Consider ACTTCGGG, for which the binding signal is -0.0614 E-score.

Turning to CGCGCACG, the binding signal is 0.0433 E-score.

For GGCCGGCA, the binding signal was -0.205 E-score.

As to ATCCTCCG, the binding signal was found to be 0.0276 E-score.

Turning to ATTACTCG, the binding signal came out at 0.0258 E-score.

In the case of ACCGTGTG, the binding signal was found to be 0.259 E-score.
